Experimental findings from PMC10668032 are described below.

This is one part of the list. At the low end of the ranking the order means little.

The experiment concerns the target SIX1-Q177R homeodomain (UniProt Q15475). As to the kind of experiment: universal protein binding microarray. As to conditions: Universal all-10-mer PBM (8x60K, AMADID 030236), 300 nM GST-tagged protein, Alexa Fluor 488 anti-GST; buffer, salt, pH and temperature not stated; high values mean tight binding; most listed sequences are background and not binding sites; double strand, one strand shown.
Turning to AATGTATC, the binding signal is -0.068 E-score. Turning to TATGACGA, the binding signal was 0.00709 E-score. Next, AGAAACAC: 0.408 E-score. With CTCCTAGA, the binding signal was -0.137 E-score. Turning to CAGCAGCC, the binding signal is -0.145 E-score. The value for AGGGCAGC was -0.162 E-score. With CAAGTACC, the binding signal worked out at 0.0928 E-score. The value for AGAGCCGC was -0.224 E-score. The value for ATCTAATC was -0.139 E-score; that for AAGATTGT was -0.202 E-score; that for CTCGCTAA was 0.0527 E-score. For ATAGCAAC, the binding signal is -0.202 E-score. Next, AAAAAACC: -0.0855 E-score. For the sequence CCGGTGCC, the binding signal is 0.0663 E-score. Next, GGGTATAA: 0.152 E-score; CATCGACC: -0.145 E-score; AATATAAG: -0.0508 E-score. Next, CTCACGCC: 0.0175 E-score; ATTTCAGA: -0.205 E-score; AGCGCGGA: -0.123 E-score.

In the case of CCCTTGCG, the binding signal amounted to 0.126 E-score. Next, GAGACAAC: 0.152 E-score; AAAGATTG: -0.129 E-score. The value for AAATGGTA was 0.0115 E-score. Regarding CACACGGC, the binding signal was found to be 0.161 E-score. The value for CTAAGCAC was 0.0366 E-score. As to AGTTTAAT, the binding signal was -0.102 E-score.

Turning to AACACGAA, the binding signal was found to be 0.305 E-score. Next, CCATTCGC: -0.0445 E-score; CCCGAGGC: -0.0201 E-score. As to AACAACTC, the binding signal was -0.0385 E-score. Next, GATTTCAA: -0.215 E-score; CCACCTGA: -0.0436 E-score; CTCTAACC: -0.0797 E-score.

On to ATGCTTGC, for which the binding signal was -0.282 E-score. Turning to CCAATGGG, the binding signal is 0.0599 E-score. Next, AACTTATA: -0.109 E-score; ACGCTTGA: 0.0448 E-score; AATTACGC: 0.0276 E-score.

AGAACTAT: the binding signal is -0.321 E-score. Next, ACCTCAAT: -0.172 E-score; ATTCACAC: 0.348 E-score; CTGCTTGA: 0.0612 E-score. The value for TAACGGCA was -0.0758 E-score. Next, CCACGAAC: -0.00927 E-score. With CGACCTAA, the binding signal was -0.0178 E-score. The value for GGTCAACC was -0.0551 E-score; that for CTTTTAAA was -0.189 E-score. TGGTTACA: the binding signal worked out at 0.139 E-score. GTCGCACA: the binding signal is 0.0027 E-score. The value for ATGCTAGC was -0.107 E-score; that for ACGCAGTC was -0.175 E-score. The value for CCGATTGA was -0.0656 E-score; that for CCGGCAGA was -0.259 E-score; that for CGTTCCAG was -0.11 E-score. On to CCCCCCCC, for which the binding signal was 0.188 E-score. Consider ATACGAAC, for which the binding signal is -0.128 E-score. AAGAAGCA: the binding signal is -0.0616 E-score. ACTCGGTA: the binding signal amounted to 0.0668 E-score. The value for GACGCGTC was -0.14 E-score; that for ATCCCAGC was -0.0105 E-score; that for ATAGGCCC was -0.154 E-score. The value for AAGCCTAA was -0.203 E-score; that for ACTTGCCG was -0.0248 E-score; that for ATGTGAAC was -0.0733 E-score. Next, GCCGGCCC: -0.198 E-score; ATCAACAA: -0.00379 E-score. Take GTGATTTA: the binding signal is -0.0364 E-score. Next, ACCACGCG: 0.0189 E-score; GACTCCGC: 0.254 E-score; CTAGGCCC: -0.113 E-score. As to AACCAACA, the binding signal was 0.0313 E-score. AAACAGTC: the binding signal was -0.245 E-score. The value for CGTTTTAA was -0.151 E-score; that for AGTTCAAA was -0.212 E-score. The value for GTAAGCGA was -0.0281 E-score; that for ATGGATAA was 0.0967 E-score.

For the sequence CCCCACAA, the binding signal stood at 0.134 E-score. Take GCTCCTAA: the binding signal was -0.146 E-score. In the case of GTGTCATA, the binding signal came out at 0.458 E-score. Next, CTAGTAGC: -0.109 E-score; ATAACTAC: -0.00616 E-score. Consider GATACGCC, for which the binding signal was 0.126 E-score.

As to CTATGCCA, the binding signal is -0.163 E-score.

As for CACGCTAG, the binding signal amounted to 0.0298 E-score.

With CGTCCAAG, the binding signal was -0.195 E-score.

For the sequence TAAAGCAA, the binding signal was -0.108 E-score. Next, CCGGGAAA: -0.131 E-score; GTAATTAA: -0.0612 E-score. The value for AGGCTTTC was -0.196 E-score. In the case of CGACGGAC, the binding signal was -0.0755 E-score. For the sequence GGGACAAC, the binding signal was -0.16 E-score. As for GGTTGAGA, the binding signal was found to be 0.0273 E-score. Regarding CCGGAGAC, the binding signal is 0.133 E-score. Next, CCCTAAAG: 0.062 E-score; ATTCCACA: 0.0662 E-score. AACTTGGT: the binding signal was 0.148 E-score. Consider AAGCCCTT, for which the binding signal was -0.216 E-score. Next, GGGCACGA: -0.0652 E-score; CAAGTCGC: -0.177 E-score; TCTGATCA: -0.148 E-score. The value for GTGCCAAA was 0.00531 E-score; that for AGGTGTGG was 0.371 E-score.

For GGGTCTAC, the binding signal came out at 0.111 E-score.

In the case of CATTCTGA, the binding signal was -0.252 E-score. Next, GTAGGTTA: 0.0216 E-score; GACCGCAC: 0.0605 E-score; CCTGTTCA: 0.0899 E-score.

Turning to GTTGTGAA, the binding signal was -0.0327 E-score. Next, ACGTAACT: -0.000265 E-score.

With CCGAGTAC, the binding signal stood at 0.189 E-score. Turning to GTCCCATA, the binding signal was -0.0453 E-score.

ATTCTCAG: the binding signal was -0.278 E-score. The value for ACCTTAAA was -0.0918 E-score; that for CGCTTAAC was -0.0319 E-score.

In the case of ACGTTTGC, the binding signal was -0.107 E-score. For ACCAGACT, the binding signal is -0.0211 E-score. Take AATAGTAG: the binding signal was 0.0292 E-score.

For CACGTCTG, the binding signal came out at 0.0141 E-score. With ACCCATCA, the binding signal is -0.0284 E-score.

Regarding CTTAAGTA, the binding signal is -0.133 E-score. Take GAAACAGC: the binding signal was -0.187 E-score.

For CACCATGG, the binding signal was found to be 0.343 E-score. For the sequence TGAGTTAA, the binding signal was -0.216 E-score.

For AGTGCGTG, the binding signal worked out at 0.245 E-score. Next, CAAAGGCA: -0.0382 E-score. Next, CCCACGGG: 0.00181 E-score; ACGTGGGG: 0.0512 E-score. As to CCAGCCCG, the binding signal was -0.0377 E-score. With ATCGATGA, the binding signal was -0.0679 E-score. The value for CGGCACTA was -0.00083 E-score.

In the case of GGTTTTGA, the binding signal is 0.0273 E-score. For the sequence TACTGAGA, the binding signal is -0.0916 E-score.

In the case of CTTTGTGC, the binding signal turned out to be 0.0271 E-score. For the sequence CAAGCGTC, the binding signal was determined as 0.0653 E-score. The value for CGCTGCAG was -0.179 E-score; that for CTCCTGTC was -0.155 E-score; that for CTGCCCAA was 0.0619 E-score.

With CGTCCTAG, the binding signal was -0.0984 E-score. The value for ATTCGCCG was -0.013 E-score; that for CCTGAAAC was -0.0258 E-score; that for ACGGTATA was 0.0934 E-score. Regarding AGTCACGA, the binding signal came out at 0.043 E-score. For the sequence AAGCGGAC, the binding signal was -0.157 E-score. Next, ATAAGTAG: -0.0228 E-score. Consider CATCGTGC, for which the binding signal worked out at 0.0308 E-score. The value for GCGACCCA was -0.0871 E-score. The value for GATACGAC was 0.0322 E-score; that for CAGGTCAC was 0.0233 E-score.

Turning to AAAACGAA, the binding signal was -0.0683 E-score. Next, CGCTTGGA: 0.103 E-score; GAACACTA: 0.356 E-score. The value for AATAATCT was -0.169 E-score; that for AGTGGCCG was -0.14 E-score.

ATATAGAA: the binding signal was -0.122 E-score. The value for CATCGTCA was -0.213 E-score.

Regarding AACTAAGA, the binding signal was 0.0623 E-score. In the case of GCACGGGC, the binding signal stood at 0.0283 E-score. GCCGATGA: the binding signal is -0.181 E-score.

On to TCTCTGCA, for which the binding signal was -0.124 E-score.

For AATCCGGG, the binding signal is 0.113 E-score. Regarding AGCCCCTC, the binding signal is -0.0226 E-score. The value for GAGGGGAC was 0.2 E-score; that for AGCTCAAT was -0.179 E-score; that for TTTGCAAA was -0.0796 E-score. The value for CCGGTCCC was 0.0295 E-score; that for GACATGGA was -0.171 E-score; that for GGGCGGAA was -0.198 E-score. On to CTAAGCGA, for which the binding signal was -0.232 E-score. Consider CGTTCGTA, for which the binding signal was -0.199 E-score. Next, ATCCATTA: 0.0357 E-score. Regarding GATCTCCA, the binding signal was -0.124 E-score.
